The list shows a part of the results.

The target in this assay is T1, OsWOX13 (Oryza sativa, UniProt Q5QMM3 1-267).
T1 sequence: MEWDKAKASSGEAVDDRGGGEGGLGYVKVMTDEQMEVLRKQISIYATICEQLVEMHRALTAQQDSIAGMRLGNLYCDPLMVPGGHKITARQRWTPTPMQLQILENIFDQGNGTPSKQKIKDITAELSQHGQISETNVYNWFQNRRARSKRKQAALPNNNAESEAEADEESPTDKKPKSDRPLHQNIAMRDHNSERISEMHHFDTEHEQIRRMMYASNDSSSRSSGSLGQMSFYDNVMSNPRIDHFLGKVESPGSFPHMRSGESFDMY
Briefly: protein-binding microarray (RPBM); PBS, 2% BSA, 51.3 ng/ul salmon testes DNA, 50 uM zinc acetate, 200 nM TF, 25 C, 1 h; high values mean tight binding. Particulars: protein: recombinant; tags: N-terminal polyhistidine and DsRed monomer fusion (pET32a); label: CyDye5-dUTP incorporated in the synthesized complementary strand; 3' TTTTT single-stranded linker to array surface; dsDNA, one strand shown. In a few lines: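 Ni–NTA purification followed expression in E. coli BL21-CodonPlus of transcription factors fused N-terminally to a polyhistidine tag and DsRed. At 200 nM in PBS with 2% BSA, salmon testes DNA and 50 µM zinc acetate, the protein was incubated for 1 h at 25 °C with a custom Agilent array that had been primer-extended with Cy5-dUTP and blocked with 2% BSA. After washing, the array was read on an Axon 4000B scanner. The binding signal is per-feature fluorescence intensity in arbitrary units.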
Consider “TTTAGGATTGAAGTAAACTGTAAACTATATGTCTGACCGCCGGAGTCACCTAGTGCAG”, for which the binding signal was 16600 fluorescence intensity (a.u.).
Take “GTTTGTTATTTAAATTAAGACTTAGCTTGTCAAGTATAGGCGGAGTCACCTAGTGCAG”: the binding signal was 6720 fluorescence intensity (a.u.).
In the case of “CTAGAATGATTTACATTGTGAAACGGAGAAAGTATATTTACGGAGTCACCTAGTGCAG” it was 7280 fluorescence intensity (a.u.); in that of “TATCAAAATTTTGCGAGTGATTAGTGAACGGTGCAACGCGCGGAGTCACCTAGTGCAG”, 16100 fluorescence intensity (a.u.); in that of “TGTTCAATTTGATTAAACTCACCGCTCTGCATAAATCACGCGGAGTCACCTAGTGCAG”, 14600 fluorescence intensity (a.u.).
In the case of “CAACAATTTATTCTATGTCAGCTTATCATAATCTTGCTTACGGAGTCACCTAGTGCAG”, the binding signal is 4820 fluorescence intensity (a.u.).
In the case of “AATTAAATTGTTAACTGGAACTCGCAGGCCAGGTTCTCAGCGGAGTCACCTAGTGCAG”, the binding signal is 34300 fluorescence intensity (a.u.).
As for “CCAAAATAGATGAGAGTATTATAGACATTAGCCTCCATGCCGGAGTCACCTAGTGCAG”, the binding signal was 14500 fluorescence intensity (a.u.).
For the sequence “TATGTAATTAGTTTTGTAAGTAGTCTATATTTAATACTCTCGGAGTCACCTAGTGCAG”, the binding signal is 13100 fluorescence intensity (a.u.).
As for “GATGATTAATCTGAACCGCCTGCCCAAAAGGCACAGAGGTCGGAGTCACCTAGTGCAG”, the binding signal was 23900 fluorescence intensity (a.u.).
For the sequence “GAAATTGTTAATCCAGCTAGGGATTGTTTATTAGTTTGCCCGGAGTCACCTAGTGCAG”, the binding signal is 6600 fluorescence intensity (a.u.).
For the sequence “GGACTGGGGCAGGAGGGAGGGGAGGAGCAGGTCGGAGAGTCGGAGTCACCTAGTGCAG”, the binding signal is 4030 fluorescence intensity (a.u.).
The value for “ATGATTTGTTCCCACGACCTCCATTGTACCGAAATAATATCGGAGTCACCTAGTGCAG” was 6490 fluorescence intensity (a.u.); that for “ACTTAATAAAATCAAACGTCACAGTTCCGTACTTTTCAGTCGGAGTCACCTAGTGCAG” was 3370 fluorescence intensity (a.u.); that for “ACTGCCTAATTGGCCAGACCATGCATGCACTAGTAATACTCGGAGTCACCTAGTGCAG” was 20600 fluorescence intensity (a.u.).
As for “TCGCTAATTATCAGAGCGGAAGACCGCACGTGACACTGCACGGAGTCACCTAGTGCAG”, the binding signal was 33500 fluorescence intensity (a.u.).
For “ATATATATATATATATATATATATGTGCGCGCGCGCTTGCCGGAGTCACCTAGTGCAG”, the binding signal was 4400 fluorescence intensity (a.u.).
Regarding “AAAAGAAACGAGTGATTGAGGGAAGTAGACTTGAGCCGTTCGGAGTCACCTAGTGCAG”, the binding signal is 12300 fluorescence intensity (a.u.).
“CGCCAATTATTGAATGAACTAAAGCGAGTCAATTATTACCCGGAGTCACCTAGTGCAG”: the binding signal is 42300 fluorescence intensity (a.u.).
With “GAGTAAATTTAGTTGGCGACTTTGCTGGTTATACAAGTCTCGGAGTCACCTAGTGCAG”, the binding signal was 4680 fluorescence intensity (a.u.).
For the sequence “CCATTCGCGCCGTGATTGGATTCTTCCGATCCTCTTGTATCGGAGTCACCTAGTGCAG”, the binding signal is 18500 fluorescence intensity (a.u.).
Regarding “GCCAAATTAACCAACATAAAACACTAGCTCTAGTTAATATCGGAGTCACCTAGTGCAG”, the binding signal is 4960 fluorescence intensity (a.u.).
Turning to “TTGATAAACTGTAACTGCTTTCAGTGTACAATTCGCTAACCGGAGTCACCTAGTGCAG”, the binding signal was 17600 fluorescence intensity (a.u.).
In the case of “CTAAATTTTAGGAAAGAAACATAAATTCCATGCCATGTTTCGGAGTCACCTAGTGCAG” it was 3810 fluorescence intensity (a.u.); in that of “AGTAATTTATGAGTAAAACTTTTCTTAGCGATTTAGAAGTCGGAGTCACCTAGTGCAG”, 15000 fluorescence intensity (a.u.); in that of “ATAATTAGTATTTTCATTGTTATTAGATGATAAAACATGACGGAGTCACCTAGTGCAG”, 9020 fluorescence intensity (a.u.).
Take “TGCTGGTTGATTGATTGATTGATGGACAAATAGGTAGATGCGGAGTCACCTAGTGCAG”: the binding signal was 56300 fluorescence intensity (a.u.).
The value for “ATATGGATGATTTGTTGGAGTAGGTAAATATATGGAGGAGCGGAGTCACCTAGTGCAG” was 12400 fluorescence intensity (a.u.); that for “ATTTAGATGACATGCAAACAGATGAAAATCCACATTCCTCCGGAGTCACCTAGTGCAG” was 4060 fluorescence intensity (a.u.).
On to “GATTAATTCATTATTAATTATTATACACTTAAAATATAGACGGAGTCACCTAGTGCAG”, for which the binding signal is 14000 fluorescence intensity (a.u.).
The value for “ACAAACTGAATGCCACCAAAATCGAATCGCTACAAACCCTCGGAGTCACCTAGTGCAG” was 3610 fluorescence intensity (a.u.).
The value for “AGGGTGGGAATGGATTTAAATTGAAGGTATACGTATGGTTCGGAGTCACCTAGTGCAG” was 13300 fluorescence intensity (a.u.).
The value for “AGCTAATACTTAATTAATCACACGCTAATGGACTGCTCCGCGGAGTCACCTAGTGCAG” was 16700 fluorescence intensity (a.u.); that for “CCTAATCAGTACCTAAATCAACAAAACTAGTCGTGTAATGCGGAGTCACCTAGTGCAG” was 5610 fluorescence intensity (a.u.); that for “TCTCATAAATGTGTCAATCACATTTTCTCCCACATATCGACGGAGTCACCTAGTGCAG” was 29900 fluorescence intensity (a.u.).
Turning to “AAAACTGAATTTGAGATGATATGTAACCGTTAGATGGGAGCGGAGTCACCTAGTGCAG”, the binding signal was 3210 fluorescence intensity (a.u.).
As for “AATGTACCATTAATTGTGTACAACCAATGTACAGATAGGCCGGAGTCACCTAGTGCAG”, the binding signal is 3770 fluorescence intensity (a.u.).
Turning to “CCTGGTCTTTGATTGGTCCACGTGGCGCAGCGAGAATTCACGGAGTCACCTAGTGCAG”, the binding signal is 12400 fluorescence intensity (a.u.).
“GAAAATAGACTTATTCCTAAATGTATGATCGGACTTGGATCGGAGTCACCTAGTGCAG”: the binding signal is 9250 fluorescence intensity (a.u.).
As to “TTGCATGATTGCCTCCAAAATATATACGACCAGCGATCGACGGAGTCACCTAGTGCAG”, the binding signal was 23700 fluorescence intensity (a.u.).
In the case of “CAAATTTCGTCGTTAACAGTTTGTCCTGAAAACCTTCCGTCGGAGTCACCTAGTGCAG” it was 7630 fluorescence intensity (a.u.).
“TAAATTGAGAATCGAGGATTGACTATGTGTAAATAAATATCGGAGTCACCTAGTGCAG”: the binding signal is 3630 fluorescence intensity (a.u.).
